Several values for one entry are separate records, joined by “and”; a condition that tells them apart may be missing. Identical values can stand only once. In all, about 410,000 compounds went through this assay and about 7,200 (1.8%) were called active. This list was built around the results that the source calls inconclusive (neither active nor inactive); the mix of calls is not that of the screen. Calls come from the whole dose curve; as a rule, active = well fitted activation curve with a large enough effect; inconclusive = small, poorly fitted or top-dose-only effect, or another doubt; inactive = no such curve, though single readings can be large or run the other way. Potencies of inconclusive entries are doubtful fits and often do not repeat.
Assay: qHTS of TDP-43 Inhibitors; note: nearly all actives have a fitted effect of over 50% in size; for growth rescue (activation): % of control where 0% means no effect
Details: TDP-43 expressing yeast growth rescue, BacTiter-Glo, 24 h; growth rescue (activation): at 46.1 µM (top of the series) unless noted
Outline: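 Galactose-induced TDP-43 yeast, OD600=0.02, compound pinned; 24 hr, 30 deg C; BacTiter-Glo luminescence for growth. Inhibitors of TDP-43 toxicity read as activators.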
In the case of `CC(C)(C)OC(=O)C(Oc1ccccc1[N+](=O)[O-])C(=O)OC(C)(C)C`, the “growth rescue (activation)” value is reported as inactive: 20.2%.
With `CC(=O)c1sc(NC(=O)c2ccc(Br)o2)nc1C` the Potency was active: 11.2 µM.
For `Cc1ccc(-c2nc(P(=O)(c3ccccc3)c3ccccc3)c(N3CCOCC3)o2)cc1`, the “growth rescue (activation)” value was inactive: -10.8%.
For `Cc1cc(OCc2cc(C(=O)N(C)Cc3nonc3C)no2)cc(C)c1Cl`, the Potency was inconclusive: 25.1 µM [activator, single point].
In the case of `CCCCNC(=O)CN1C(=O)c2c(c3ccccc3n2C)C1c1ccc(OC)cc1` (stereo not drawn), the “growth rescue (activation)” value is reported as inactive: 0.451%.
For `O=C(COc1ccc(Cl)cc1)NNC(=O)c1ccccn1`, the Potency was active: 14.1 µM.
With `Cc1cccc(N2CCN(C(=O)c3csc4ccccc34)CC2C)c1` (stereo not drawn) the Potency was inconclusive: 3.98 µM [activator, partial curve].
For `COc1ccc(-c2nc(C)c(CCNS(=O)(=O)c3ccc(F)cc3)s2)cc1OC`, the Potency was inconclusive: 31.6 µM [activator, single point].
For `COc1cc2ccccc2cc1C(=O)N1CCN(C(C)=O)CC1`, the “growth rescue (activation)” value was inactive: 11.3%.
For `COc1ccc(C(=S)N2CCN(S(=O)(=O)c3ccccc3)CC2)cc1`, the Potency was inconclusive: 0.891 µM [activator, full curve, poor fit].
In the case of `O=C(Cn1c(=O)n(Cc2ccc(C(=O)NCc3ccc4c(c3)OCO4)cc2)c(=O)c2ccccc21)Nc1ccc(F)cc1F`, the Potency is reported as inconclusive: 1 µM [activator, full curve, poor fit].
For `Cc1ccc(S(=O)(=O)N2CCN(C(=O)Cc3ccsc3)CC2)c(C)c1`, the Potency was inconclusive: 11.2 µM [activator, partial curve].
For `COc1ccc(C2(N3CCN(c4cccc(C)c4C)CC3)C(=O)c3ccccc3C2=O)cc1`, the “growth rescue (activation)” value was inactive: 15%.
In the case of `Cc1ccc(C(=O)Nc2sc3c(c2C(=O)O)CCCCC3)o1`, the “growth rescue (activation)” value is reported as inactive: -39.8%.
With `COc1ccc(-c2csc(Nc3cc(C)ccn3)n2)cc1OC` the Potency was active: 14.1 µM.
With `O=C(c1ccc2nc(-c3ccco3)c(-c3ccco3)nc2c1)N1CCN(c2ccccc2)CC1` the Potency was inconclusive: 20 µM [activator, single point].
With `C/C(Cn1nnc([N+](=O)[O-])n1)=N\NC(=O)c1ccc(O)cc1` the Potency was inconclusive: 10 µM [activator, partial curve].
For `O=C(CSc1ncn[nH]1)c1ccco1`, the “growth rescue (activation)” value was inactive: -7.03%.
In the case of `O=c1c(-c2cc(-c3ccccc3)nc3c2COc2ccccc2-3)coc2ccc(Cl)cc12`, the “growth rescue (activation)” value is reported as inactive: 8.95%.
In the case of `Oc1ccc(C[C@H]2CNC(=S)N2CC2CCCN2C[C@H](Cc2ccc(O)cc2)N2C[C@H](Cc3ccccc3)N(CC3CCCCCC3)C2=S)cc1` (stereo partly drawn), the Potency is reported as inconclusive: 35.5 µM [activator, single point].
In the case of `CCCCOn1c(C)c(C(=O)OCC)c2c3nonc3ccc21`, the “growth rescue (activation)” value is reported as inactive: 2.39%.
For `Cc1c(C=O)c2ccccn2c1C(=O)c1ccccc1`, the Potency was inconclusive: 35.5 µM [activator, partial curve].
In the case of `CCOc1ccc(/C=C/c2nc(C#N)c(N3CCC(C)CC3)o2)cc1`, the Potency is reported as inconclusive: 11.2 µM [activator, single point].
In the case of `CC(Nc1ccccc1)c1cc(Cl)ccc1O` (stereo not drawn), the “growth rescue (activation)” value is reported as inactive: 6.88%.
For `COc1ccccc1N1CCN(c2csc3ccccc3c2=O)CC1`, the Potency was inconclusive: 1.58 µM [activator, partial curve].
With `O=C(NCc1ccc(F)cc1)c1cc(C2CCCCN2C(=O)c2cccs2)on1` (stereo not drawn) the Potency was inconclusive: 3.16 µM [activator, single point].
In the case of `COc1cccc(/C=C/C(=O)c2ccc[nH]2)c1`, the Potency is reported as inconclusive: 35.5 µM [activator, single point].
With `Clc1ccc(C2=NCCn3nc4ccccc4c32)cc1` the Potency was inconclusive: 35.5 µM [activator, partial curve, poor fit].
For `Nc1c(N2CCCCC2)c2ccccc2oc1=O`, the Potency was inconclusive: 20 µM [activator, partial curve].
In the case of `CCOC(=O)CSc1nc2sc3c(c2c(=O)n1-c1ccc(OC)cc1)CC(C(C)C)OC3` (stereo not drawn), the Potency is reported as inconclusive: 3.98 µM [activator, full curve, poor fit].
With `Cc1cc(NC(=O)c2cc(-c3ccc(Cl)c(Cl)c3)on2)n(-c2ccccc2)n1` the “growth rescue (activation)” value was inactive: 20.8%.
With `Cc1ccccc1N1CC(c2nc3ccccc3n2Cc2ccc(Br)cc2)CC1=O` (stereo not drawn) the Potency was inconclusive: 20 µM [activator, single point].
In the case of `CCN(CC)c1ccc(/C=N/NC(=O)Cc2cccs2)cc1`, the “growth rescue (activation)” value is reported as inactive: -7.07%.
With `O=C(Cn1c(-c2cccs2)cc2ccccc21)N1CCN(c2ccc(F)cc2)CC1` the “growth rescue (activation)” value was inactive: 9.5%.
In the case of `CCCNC(=O)C1(C)CCCN(Cc2cccn2C)C1` (stereo not drawn), the Potency is reported as inconclusive: 10 µM [activator, partial curve].
With `COc1ccc(-c2cc(NC=O)c3ncc(-c4ccc(C(C)=O)cc4)n3c2)cn1` the “growth rescue (activation)” value was inactive: 24.1%.
With `COC(=O)CNC(=O)/C=C/c1cc(Br)ccc1OC` the Potency was inconclusive: 17.8 µM [activator, partial curve].
For `Cc1ccccc1CNC(=O)c1ccc2ccccc2n1`, the Potency was active: 15.8 µM.
For `COc1cc(C(=O)OCCc2cc3ccccc3c(=O)o2)cc(OC)c1OC`, the Potency was inconclusive: 31.6 µM [activator, partial curve].
In the case of `CC(=O)O[C@H]1CC[C@@]2(C)[C@@H](CC[C@H]3[C@@H]4CC[C@H](C(C)O)[C@@]4(C)CC(=O)[C@@H]32)C1` (stereo partly drawn), the Potency is reported as inconclusive: 35.5 µM [activator, single point].
With `COc1ccc(-c2nc3ccccc3n3c(-c4ccc(OC)cc4)c4c(=O)n(C)c(=O)n(C)c4c23)cc1` the Potency was inconclusive: 6.31 µM [activator, partial curve].
In the case of `COc1cc2cc(C(=O)N3CCc4ccccc4C3)[nH]c2cc1OC`, the “growth rescue (activation)” value is reported as inactive: 5.42%.
For `Cc1c(Cl)cccc1-n1nc(C)c2c(C)cc(=O)n(CC(=O)N3CCCc4ccccc43)c21`, the Potency was inconclusive: 35.5 µM [activator, single point].
For `Cc1cccc(C)c1OCc1cc(C(=O)NCC2CC2)no1`, the Potency was inconclusive: 11.2 µM [activator, partial curve].
With `Cc1nc(Nc2nc(-c3ccccc3)cc(=O)[nH]2)nc2ccccc12` the Potency was inconclusive: 35.5 µM [activator, single point].
For `O=C(c1cc(-c2ccccc2Cl)on1)N1CCN(C(=O)c2ccco2)CC1`, the Potency was inconclusive: 12.6 µM [activator, single point].
For `COC(=O)c1cc(CSc2ncnc3sccc23)oc1C`, the Potency was inconclusive: 14.1 µM [activator, single point].
For `COc1cccc([C@@H]2Oc3ccc(OC)cc3C(=O)[C@H]2O)c1`, the Potency was inconclusive: 3.16 µM [activator, partial curve].
With `Cc1ccc(-c2nnc(SCC#CCOC(=O)c3cccs3)o2)cc1` the Potency was inconclusive: 35.5 µM [activator, single point].
For `O=C(OC1CCOC1=O)c1cc(-c2ccc(Cl)cc2)nc2ccccc12` (stereo not drawn), the Potency was inconclusive: 14.1 µM [activator, single point].
In the case of `Cc1ccc(-c2csc3ncnc(-n4nnc5ccccc54)c23)cc1`, the Potency is reported as inconclusive: 28.2 µM [activator, partial curve].
In the case of `Cc1ccc(CNC(=O)CCc2c(C)nc3c4c(C)cc(C)nc4nn3c2C)cc1`, the “growth rescue (activation)” value is reported as inactive: 9.98%.
With `O=C(O)C1=C[C@H](c2ccccc2)C[C@H](OCCCCO)O1` the Potency was inconclusive: 5.62 µM [activator, single point].
With `C[C@@H]1CN([C@H](C)CO)S(=O)(=O)c2ccc(C#CC3CCCC3)cc2O[C@H]1CN(C)C(=O)Cc1ccccc1` the Potency was inconclusive: 35.5 µM [activator, single point].
With `CC1=C(C(=O)NCc2ccc(Cl)cc2)C2(CCC(C)CC2)OC1=O` (stereo not drawn) the Potency was inconclusive: 1 µM [activator, full curve, poor fit] and inconclusive: 20 µM [activator, partial curve].
In the case of `COc1cc2c(cc1NC(=O)C(C)OC(=O)C1CC(=O)N(Cc3ccco3)C1)oc1ccccc12` (stereo not drawn), the Potency is reported as inconclusive: 15.8 µM [activator, single point].
For `COc1ccccc1/C=C1\NC(=S)N(CC2CCCO2)C1=O` (stereo not drawn), the Potency was active: 14.1 µM.
For `Cn1c2ccccc2c2cc(C(=O)N3CCOCC3)sc21`, the Potency was active: 14.1 µM.
In the case of `CN1CC(c2ccccn2)C2(SC(=S)N(Cc3ccccc3)C2=O)C12C(=O)Nc1ccccc12` (stereo not drawn), the “growth rescue (activation)” value is reported as inactive: -19.9%.
With `COc1cccc(NC(=O)N(Cc2cn(C)c3ccccc23)C2CCCCCC2)c1` the Potency was inconclusive: 0.562 µM [activator, full curve, poor fit].
For `Cc1ccc(/C(N)=N/OC(=O)c2cccc(Cn3cc(C(F)(F)F)ccc3=O)c2)cc1`, the Potency was inconclusive: 17.8 µM [activator, single point].
With `COc1ccccc1N1CCN(C(=O)/C=C/c2ccc3c(c2)OCO3)CC1` the Potency was inconclusive: 12.6 µM [activator, single point].
With `CCOC(=O)C1=C(O)/C(=C/c2ccc(OCC(=O)O)c(OCC)c2)SC1=Nc1ccc(OC)cc1` the “growth rescue (activation)” value was inactive: -1.7%.
For `O=C(Cn1ncc2c3ccccc3n(Cc3cccc(Cl)c3)c2c1=O)NCc1cccs1`, the Potency was inconclusive: 3.98 µM [activator, partial curve].
For `Cc1nc(NC(=O)COC(=O)CCc2ccccc2)c(Cl)cc1Cl`, the Potency was inconclusive: 39.8 µM [activator, partial curve, poor fit].
In the case of `CN(C)CCN1C(=O)c2cccc3cc([N+](=O)[O-])cc(c23)C1=O`, the “growth rescue (activation)” value is reported as inactive: 4.05%.
In the case of `O=C(NC1CCCCC1)C1CCCN(S(=O)(=O)c2cnc[nH]2)C1` (stereo not drawn), the Potency is reported as inconclusive: 0.316 µM [activator, full curve, poor fit].
In the case of `C/C(=C\C(=S)Nc1ccccc1)Nc1ccccc1`, the Potency is reported as active: 12.6 µM.

From PubChem BioAssay AID652104 (National Center for Advancing Translational Sciences (NCATS), 2013)
Potency is the fitted concentration of half-maximal effect; tags give direction and shape of the fitted curve.
